The full ranking holds about 33,000 sequences; the median of “E-score (-0.5 to 0.5)” is about -0.04, and the highest 2% start at about 0.36. This is one part of the list.
Target: T1, Hmlalpha2 (UniProt P0CY09)
T1 sequence: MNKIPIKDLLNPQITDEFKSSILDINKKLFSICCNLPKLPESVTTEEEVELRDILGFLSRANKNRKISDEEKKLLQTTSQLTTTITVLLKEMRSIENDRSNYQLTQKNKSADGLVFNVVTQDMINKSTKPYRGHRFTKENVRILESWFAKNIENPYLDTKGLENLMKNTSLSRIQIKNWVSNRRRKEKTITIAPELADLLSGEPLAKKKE
Assay: PBM E-score (8-mer binding enrichment) (E-score (-0.5 to 0.5)); higher = stronger / more preferred TF binding; most listed sequences are background and not binding sites
Conditions: protein concentration: 200 nM; construct: GST-full length
Method in brief: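 Universal all-10-mer Agilent arrays, fresh or stripped once, were converted to double-stranded form by primer extension. GST-tagged yeast transcription factors from PURExpress in vitro transcription/translation, full-length or DNA-binding domain only, were applied at about 100-200 nM and detected with fluorescent anti-GST. After masliner normalisation, the Universal PBM Analysis Suite scored each ungapped eight-base word together with its reverse complement by E-score.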

Sequence	PBM E-score
AGCTGAAG	-0.154
CGAACCTC	-0.111
AACGGTGC	0.127
ACTGGGCC	-0.107
CCCAAACC	-0.233
CAATAATA	0.198
AAGTGGAA	0.0467
CAGCCTTA	-0.131
CATATGAC	0.137
ATATTCTC	0.00428
GAGTTACA	0.233
AGTGAAAC	-0.0209
GGGACACA	-0.179
CCCATATA	-0.213
CATTATGC	0.0946
CCCATCCG	-0.185
ATGCAAAA	0.263
GAGCCACC	-0.251
CATATAAA	0.101
TCTGAAAA	-0.0538
CGGATCTC	-0.176
CATCACCG	-0.081
CTCTCGGA	-0.116
CCTCGAAC	-0.227
GCACTTCA	0.0694

Sequence	PBM E-score
GTAAGCCA	-0.109
AAGCGGAA	0.00048
CATCATGC	0.0775
GACGCAAC	-0.0442
AAGTCCAT	-0.0919
ACAAGGTC	0.294
ATCCATCC	-0.175
ATTTCTTG	0.0963
CAACCCAC	-0.0634
AACCCAAT	-0.0481
CCCTGTAC	-0.0311
CCTCGTGA	-0.0308
AGCTAGTG	-0.133
GTTAAGAA	0.251
ATTCACGG	0.0201
AATGGACA	0.173
GCGGAGAA	-0.155
TGTTATAA	0.399
CGCAAGTA	0.239
CCGCTCGA	-0.208
AACCGAAC	-0.188
CCTGTCTA	-0.156
CGGTGAGC	-0.281
ATAGTGTC	-0.0275
CAACTCCC	-0.165

Sequence	PBM E-score
AAGTTCAC	0.0925
CGCTTCGC	-0.13
CCTGGCGC	-0.234
AGTTCACG	0.0891
CCGACAAA	-0.00265
CCGAGAAG	-0.244
CGGCTAGA	-0.196
ACCGGACA	-0.168
ACGTGGAC	0.0226
AGGAGTTG	0.121
CAAAGCCC	-0.218
AACCTTCA	0.143
AAGCATAT	0.0773
AACAAGGT	0.289
ATAAATTC	0.129
CCGCACTC	-0.259
AAGTCTAC	-0.177
CATGATCG	0.0573
CCACACCC	-0.108
GCCCCAGA	-0.328
CTGGTCAC	-0.055
CGCATATC	0.152
CAGGCTAC	-0.0724
TACTCCCA	0.126
CATAACTC	0.0153

Sequence	PBM E-score
CAGGCAAC	-0.114
AGCCTACC	-0.364
GCAATAAA	0.112
CGTGTCGA	0.363
AATATACG	0.0601
CGTACCGC	-0.0372
CAATTTGG	-0.0369
AACCGACA	0.104
ACACGGGA	0.371
GCTTGTCA	0.207
CTCCCACA	-0.216
CGGAATCA	-0.132
CACGTATG	0.229
GGCCTTCA	-0.219
AAATGGAG	0.0624
ACCACCCT	-0.275
CTATGGGC	-0.261
ATCGGCAC	-0.0287
CCCCGCGC	-0.154
GCCCGGGA	-0.166
AACACTTC	0.138
CCAAGTTC	-0.288
GTGTTCCA	0.0149
GCCGCTCA	-0.146
GTAAACTA	0.342

Sequence	PBM E-score
GCACCAGC	-0.266
CGGCCCTA	-0.26
CAACGAAA	0.129
ACGGGAGG	-0.239
GTTAATCA	0.342
TCTTACAA	0.229
ATTAGGAC	-0.174
AGTTGCGG	0.0364
AGCCGTGA	-0.0646
ACGCCCTA	-0.211
ACAGTTAA	0.112
GCACCAAA	-0.0557
ATCCAGAC	-0.24
AGAGGTGA	-0.0117
CTTAGTAC	0.0704
ATGGAACG	-0.132
AGTCAACG	0.0904
AGTTAATC	0.0967
GAAAACAC	0.345
ATCTGACG	-0.172
CGTATAAG	0.0227
ACGACAGC	0.124
CACCCTAG	-0.0696
CGATTAAG	0.169
AATAGATT	0.0509

Sequence	PBM E-score
ATAATGTG	0.213
ATCGCATG	0.253
AATGTGGC	-0.106
AAGATACT	-0.0425
ACCCTCAG	-0.264
GCGAGCGA	-0.242
ACCACGGG	-0.213
AATTTTAC	0.347
GTGTTATA	0.444
CCAAAAAG	0.0169
GTTGGGTA	-0.0225
CCCAAGGC	-0.19
GGAGGCTA	-0.325
ATAATCGC	0.00512
ACATTAAG	0.288
CCCGCCGA	-0.373
ACCGGTTA	-0.00528
CATAACCC	0.018
GAATTGTA	0.184
CTTGCAAA	0.0667
AGAAACAA	0.225
CAGATGCA	-0.0821
AACCACGA	-0.0978
GCTTCGGA	-0.092
CAAGTTCA	0.107

Sequence	PBM E-score
GATTATGA	0.0529
CTGCAGAA	-0.0616
CGCGGCTC	-0.083
CCGTTCGA	-0.209
CCGTGGCG	-0.125
CATGGCGG	0.0118
ATACAGAA	0.199
CCTTAAAG	-0.181
AGCTGGTG	-0.0156
CATTTAGG	-0.262
CCAAATAC	0.0549
ACAACACT	0.248
ACGCCGTA	0.0926
GGATGTTA	0.299
CTTGCAGA	-0.179
CTCGGAAA	-0.0783
GTCGCGGA	-0.252
CAAGCATA	0.00757
AGGGGTAT	-0.308
CTATAATA	-0.00916
GCATAGGC	-0.119
CACATCCA	-0.0316

From the supplement of paper PMC3334620
